Data from the supplement of paper PMC8728848.
Some of the results follow.

Key:
Assay in all cases: glycan array binding signal (z-score within array); higher = stronger binding
Conditions in all cases: glycan notation: IUPAC condensed, linker removed
Man(b1-4)GlcNAc = target: Man(b1-4)GlcNAc
How it was run: (§1)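 From the Consortium for Functional Glycomics database, 3228 arrays were curated, keeping only those whose protein sequence was available. Binding is given as a within-array Z-score averaged across arrays sharing a protein sequence and across linkers. Negative Z-scores can be read as non-binding.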

Neu5Ac(a2-3)Gal = target: Neu5Ac(a2-3)Gal
How it was run: as §1

[1] = target: Neu5Ac(a2-3)Gal(b1-3)GalNAc
How it was run: as §1

[2] = target: Neu5Ac(a2-3)Gal(b1-3)GalNAc(b1-3)Gal(a1-4)Gal(b1-4)Glc
How it was run: as §1

[3] = target: Neu5Ac(a2-3)Gal(b1-3)GalNAc(b1-3)Gal(b1-4)GlcNAc
How it was run: as §1

[4] = target: Neu5Ac(a2-3)Gal(b1-3)GalNAc(b1-4)[Neu5Ac(a2-3)]Gal(b1-4)Glc
How it was run: as §1

[5] = target: Neu5Ac(a2-3)Gal(b1-3)GalNAc6S
How it was run: as §1

[6] = target: Neu5Ac(a2-3)Gal(b1-3)GlcNAc
How it was run: as §1

[7] = target: Neu5Ac(a2-3)Gal(b1-3)GlcNAc(b1-3)Gal(b1-3)GlcNAc
How it was run: as §1

[8] = target: Neu5Ac(a2-3)Gal(b1-3)GlcNAc6S
How it was run: as §1

[9] = target: Neu5Ac(a2-3)Gal(b1-3)[Fuc(a1-4)]GlcNAc
How it was run: as §1

[10] = target: Neu5Ac(a2-3)Gal(b1-3)[Fuc(a1-4)]GlcNAc(b1-3)Gal(b1-3)[Fuc(a1-4)]GlcNAc
How it was run: as §1

[11] = target: Neu5Ac(a2-3)Gal(b1-3)[Fuc(a1-4)]GlcNAc(b1-3)Gal(b1-4)[Fuc(a1-3)]GlcNAc
How it was run: as §1

[12] = target: Neu5Ac(a2-3)Gal(b1-3)[Neu5Ac(a2-3)Gal(b1-4)]GlcNAc
How it was run: as §1

[13] = target: Neu5Ac(a2-3)Gal(b1-3)[Neu5Ac(a2-6)]GalNAc
How it was run: as §1

Neu5Ac(a2-3)Gal(b1-4)Glc = target: Neu5Ac(a2-3)Gal(b1-4)Glc
How it was run: as §1

[14] = target: Neu5Ac(a2-3)Gal(b1-4)GlcNAc
How it was run: as §1

[15] = target: Neu5Ac(a2-3)Gal(b1-4)GlcNAc(b1-2)Man(a1-3)[GlcNAc(b1-2)Man(b1-4)GlcNAc(b1-2)Man(a1-6)]Man(b1-4)GlcNAc(b1-4)GlcNAc
How it was run: as §1

[16] = target: Neu5Ac(a2-3)Gal(b1-4)GlcNAc(b1-2)Man(a1-3)[Neu5Ac(a2-6)Gal(b1-4)GlcNAc(b1-2)Man(a1-6)]Man(b1-4)GlcNAc(b1-4)GlcNAc
How it was run: as §1

[17] = target: Neu5Ac(a2-3)Gal(b1-4)GlcNAc(b1-3)Gal(b1-3)GlcNAc
How it was run: as §1

[18] = target: Neu5Ac(a2-3)Gal(b1-4)GlcNAc(b1-3)Gal(b1-4)GlcNAc
How it was run: as §1

[19] = target: Neu5Ac(a2-3)Gal(b1-4)GlcNAc(b1-3)Gal(b1-4)GlcNAc(b1-3)Gal(b1-4)GlcNAc
How it was run: as §1

[20] = target: Neu5Ac(a2-3)Gal(b1-4)GlcNAc(b1-3)Gal(b1-4)[Fuc(a1-3)]GlcNAc
How it was run: as §1

[21] = target: Neu5Ac(a2-3)Gal(b1-4)GlcNAc(b1-3)GalNAc
How it was run: as §1

[22] = target: Neu5Ac(a2-3)Gal(b1-4)GlcNAc(b1-6)[Gal(b1-3)]GalNAc
How it was run: as §1

[23] = target: Neu5Ac(a2-3)Gal(b1-4)GlcNAc(b1-6)[Neu5Ac(a2-3)Gal(b1-3)]GalNAc
How it was run: as §1

[24] = target: Neu5Ac(a2-3)Gal(b1-4)GlcNAc6S
How it was run: as §1

[25] = target: Neu5Ac(a2-3)Gal(b1-4)[Fuc(a1-3)]GlcNAc
How it was run: as §1

[26] = target: Neu5Ac(a2-3)Gal(b1-4)[Fuc(a1-3)]GlcNAc(b1-3)Gal
How it was run: as §1

[27] = target: Neu5Ac(a2-3)Gal(b1-4)[Fuc(a1-3)]GlcNAc(b1-3)Gal(b1-4)GlcNAc
How it was run: as §1

[28] = target: Neu5Ac(a2-3)Gal(b1-4)[Fuc(a1-3)]GlcNAc(b1-3)Gal(b1-4)[Fuc(a1-3)]GlcNAc(b1-3)Gal(b1-4)[Fuc(a1-3)]GlcNAc
How it was run: as §1

[29] = target: Neu5Ac(a2-3)Gal(b1-4)[Fuc(a1-3)]GlcNAc(b1-6)[Gal(b1-3)]GalNAc
How it was run: as §1

[30] = target: Neu5Ac(a2-3)Gal(b1-4)[Fuc(a1-3)]GlcNAc(b1-6)[Neu5Ac(a2-3)Gal(b1-3)]GalNAc
How it was run: as §1

[31] = target: Neu5Ac(a2-3)Gal(b1-4)[Fuc(a1-3)]GlcNAc6S
How it was run: as §1

[32] = target: Neu5Ac(a2-3)Gal6S(b1-4)GlcNAc
How it was run: as §1

[33] = target: Neu5Ac(a2-3)Gal6S(b1-4)[Fuc(a1-3)]GlcNAc
How it was run: as §1

Neu5Ac(a2-3)GalNAc = target: Neu5Ac(a2-3)GalNAc
How it was run: as §1

[34] = target: Neu5Ac(a2-3)GalNAc(b1-4)GlcNAc
How it was run: as §1

[35] = target: Neu5Ac(a2-3)[GalNAc(b1-4)]Gal(b1-4)Glc
How it was run: as §1

[36] = target: Neu5Ac(a2-3)[GalNAc(b1-4)]Gal(b1-4)GlcNAc
How it was run: as §1

[37] = target: Neu5Ac(a2-3)[Neu5Ac(a2-6)]GalNAc
How it was run: as §1

Neu5Ac(a2-6)Gal = target: Neu5Ac(a2-6)Gal
How it was run: as §1

B1: Eap (Staphylococcus aureus), A0A7L5PYT7 (protein)
chain: MKFKSLITTTLALGVLASTGANFNNNEAAAAAKPLDKSSSSLHHGYSKVHVPYAITVNGTSQNILSSLTFNKNQNISYKDLEDRVKSVLKSDRGISDIDLRLSKQAKYTVYFKNGTKKVIDLKAGIYTADLINTSEIKAININVDTKKQVEDKKKDKANYQVPYTITVNGTSQNILSNLTFNKNQNISYKDLEDKVKSVLESNRGITDVDLRLSKQAKYTVNFKNGTKKVIDLKSGIYTANLINSSDIKSININVDTKKHIENKAKRNYQVPYSINLNGTSTNILSNLSFSNKPWTNYKNLTSQIKSVLKHDRGISEQDLKYAKKAYYTVYFKNGGKRILQLNSKNYTANLVHAKDVKRIEITVKTGTKAKADRYVPYTIAVNGTSTPILSDLKFTGDPRVGYKDISKKVKSVLKHDRGIGERELKYAKKATYTVHFKNGTKKVININSNISQLNLLYVQDIKKIDIDVKTGTKAKADSYVPYTIAVNGTSTPILSKLKISNKQLISYKYLNDKVKSVLKSERGISDLDLKFAKQAKYTVYFKNGKKQVVNLKSDIFTPNLFSAKDIKKIDIDVKQYTKSKKNK
glycan array binding signal (z-score) (Man(b1-4)GlcNAc): 0.556
glycan array binding signal (z-score) (Neu5Ac(a2-3)Gal): -0.326
glycan array binding signal (z-score) [1]: -0.55
glycan array binding signal (z-score) [2]: -0.484
glycan array binding signal (z-score) [3]: -0.51
glycan array binding signal (z-score) [4]: -0.511
glycan array binding signal (z-score) [5]: -0.192
glycan array binding signal (z-score) [6]: -0.409
glycan array binding signal (z-score) [7]: -0.437
glycan array binding signal (z-score) [8]: 0.023
glycan array binding signal (z-score) [9]: -0.188
glycan array binding signal (z-score) [10]: 0.171
glycan array binding signal (z-score) [11]: -0.587
glycan array binding signal (z-score) [12]: -0.558
glycan array binding signal (z-score) [13]: 0.25
glycan array binding signal (z-score) (Neu5Ac(a2-3)Gal(b1-4)Glc): -0.329
glycan array binding signal (z-score) [14]: -0.256
glycan array binding signal (z-score) [15]: -0.467
glycan array binding signal (z-score) [16]: -0.541
glycan array binding signal (z-score) [17]: -0.614
glycan array binding signal (z-score) [18]: -0.354
glycan array binding signal (z-score) [19]: -0.603
glycan array binding signal (z-score) [20]: -0.528
glycan array binding signal (z-score) [21]: 0.372
glycan array binding signal (z-score) [22]: -0.505
glycan array binding signal (z-score) [23]: -0.533
glycan array binding signal (z-score) [24]: -0.572
glycan array binding signal (z-score) [25]: -0.563
glycan array binding signal (z-score) [26]: -0.616
glycan array binding signal (z-score) [27]: 0.303
glycan array binding signal (z-score) [28]: -0.728
glycan array binding signal (z-score) [29]: -0.08
glycan array binding signal (z-score) [30]: -0.297
glycan array binding signal (z-score) [31]: -0.653
glycan array binding signal (z-score) [32]: 1.12
glycan array binding signal (z-score) [33]: -0.35
glycan array binding signal (z-score) (Neu5Ac(a2-3)GalNAc): -0.425
glycan array binding signal (z-score) [34]: -0.589
glycan array binding signal (z-score) [35]: -0.502
glycan array binding signal (z-score) [36]: -0.33
glycan array binding signal (z-score) [37]: -0.406
glycan array binding signal (z-score) (Neu5Ac(a2-6)Gal): -0.41
